The RNAGym collection of RNA variant scans (doi:10.7554/elife.90254)
Read counts are not given, so values of variants with three or more changes are uncertain.

B1: LINE1-mini (parent)
chain: GGCAGAGCUCAACACAGCGUGGCAAAGUGGCUGUGGCUAGACUGCC

Variants of: B1
Experiment: self-cleavage, relative activity (ratio to wild type); higher = more cleavage; in vitro, sequencing; the parent is a self-cleaving ribozyme

Variant	self-cleavage
C3G A26C G29U A41U C46U	0.32
C3G A6U A12G G30A	0.23
C3G A14C G19U	0.01
C3G A25G G35C A39G	0.02
C3G C18U G33C	0.06
C3G A14G G29U	2.02
C3G A12U G17U C31U	0.12
C3G A12C A41C	0.04
C3G C18A A26C G35A G44A	0.02
C3G G5U G21A G40U	0.08
C3G C15U G30C	0.24
C3G G5C A6C	0.3
C3G G7U G36A G40C	1.89
C3G A11U A26C G30C	0.03
C3G G5U A16U G21U	0.05
C3G G7A C10A C15A A41G	0.05
C3G G21A A25C	0.57
C3G A26U G40C	0.06
C3G C23U A25G C42A	0.05
C3G A14U C15G G30A U34G C37A	0.05
C3G C10A G17U U20C A25C	0.03
C3G A24G A25C G29C G33C	0.29
C3G C15G U34A G44U	0.03
C3G G5U C13G G22U	0.85

Variant	self-cleavage
C3G C13G A14C	0.82
C3G A12G A16C C23G G30U C37A	0.02
C3G A6U A14C G19U U34G	0.11
C3G C13U A16U A25G G27A C37U	0
C3G C8U C10A U38A	0.02
C3G C10U U43A	0.06
C3G G5U A26C G27C G35U	0.14
C3G C8U C10A C18U G22A U38C	0.03
C3G G5C C13U G30U G36U G40A	0.42
C3G A6U C18U	0.06
C3G G5A C15G G17A	0.06
C3G G7C C15U A39U U43G	0
C3G A26G G30A	0.64
C3G C15U G30A G40A	0.25
C3G G5A A25U	0.2
C3G C10G U43A	0
C3G G19A C31G	0.06
C3G A26U G36U	0.31
C3G C8G A14G A24G A26U	0.28
C3G C42A C46U	0.06
C3G A25C G27A U28G G35A U43C G44C C46G	0.01
C3G C23A U34G	0.07
C3G G5U C8U	0.08
C3G C8A C13U C31G G33C C37A	0.51

Variant	self-cleavage
C3G C8G U9G A12C G22C G30C G33U G44C	0
C3G C10A A14G G21C A26G U43C	0.64
C3G C13G A26U G27C	0.02
C3G A39G U43A	0.07
C3G C10G C15A G27A	0.01
C3G A25C G27C G44C	0.52
C3G A26G C42A	0.16
C3G G7C A26U G44U	0.02
C3G C8G C23G	0.17
C3G C10A C18U A24U U43C	0.03
C3G G5A G29U C46U	0.22
C3G A11U C13A U32G	0.05
C3G A6G U43C	0.04
C3G C8G C10A C45A	0.02
C3G A11U U20C G22A U28A U34C	0.02
C3G C15A G40U	0.07
C3G A14G C46A	0.08
C3G C10A G17U	0.03
C3G G7C C8G U9A C10A	0.02
C3G C15G G36A	0.07
C3G C8A C15A C31U C37G	0.3
C3G G19A U20G G33A	0.09
C3G G17C C18A G21U	0.02
C3G C10G A16U G21A	0.04

Variant	self-cleavage
C3G G19A C23G A41U	0.11
C3G C8A A14G	0.51
C3G A6G A11G C13A G27C	0.02
C3G A6C G29U C31A	0.03
C3G A6C C10A	0.04
C3G C18A G27A	0.24
C3G A11U G19U	0.03
C3G A12C G17U A25C C42U	0.06
C3G G19U C42A C46A	0.18
C3G G17U C23A A25G G36U C46A	0.09
C3G A26C G33A	0.1
C3G G7U A26U C46A	0.15
C3G C13A G35U	1.38
C3G C13A A14G G33U	0.16
C3G A12U U20C G22A G29U	0.06
C3G C13U G17C C18A C23U	0.09
C3G G21C G29C U32A C42A	0.1
C3G C13G A14U G17U A25C	0.1
C3G A14G U38C	0.14
C3G C10U C13U G29A G30A U34A A39U C46U	0.05
C3G G19A G22A U43C	0.02
C3G A11G G22A G33U	0.03
C3G G5U A24G	0.16
C3G C31G A39C C45U	0.02

Variant	self-cleavage
C3G G7C G44U	0.05
C3G C15A G35U	0.11
C3G C13U G44A	0.2
C3G G17A C18G U28G	0.33
C3G C8A C13G A26U C31U C42A	0.26
C3G A26G A41C	0.26
C3G C8G G19C U28G G29C C46G	0.01
C3G G7U G17U	0.31
C3G C18A C37G	0.03
C3G A11G A26U	0.01
C3G A6G C18A A25G C31A G35C C37U	0.01
C3G C8A C42A	0.03
C3G A26G A41U C46A	0.17
C3G A6C G7U	0.25
C3G C23A U32A G33A C42G	0.07
C3G G5A C13A G19U C31A U32C	0.09
C3G C42A C45U	0.25
C3G C10U A14C	0.03
C3G A4U C10A G36C	0.04
C3G C13U U38A	0.03
C3G C8A C10A G22A	0.05
C3G C10A A11C G21A	0.01
C3G C15A C23A C37U	0.14
C3G C18U C31G G33A G40U	0.03

Variant	self-cleavage
C3G A14G G21A A25G	0.69
C3G G17A C31G C42G	0.08
C3G C15U C46U	0.19
C3G G7A C10A U20C A26G G27C U32A G33U G40U	0.03
C3G C8G U9C A12C A25G G27U C46U	0.01
C3G C18U G22C	0.37
C3G A6G U28A G29U C31U U34A G35U A39G	0.02
C3G C8A C23G	0.08
C3G G17C G33A G40C	0.2
C3G G5U G22A G35U C37A C42U	1.54
C3G A26C G44U	0.52
C3G A6G U9C C10G C42U	0.01
C3G A25C A26G U28G	0.03
C3G C8U A25C A41C U43G	0.24
C3G A16C G17C C23U G40A	0.11
C3G G21C G36U	0.1
C3G G5C U34G	0.08
C3G G19A C23G	0.39
C3G C10A C15A A16U C42U C45U	0.02
C3G C18U G44U	0.43
C3G A16U G21U G36U	0.14
C3G C8U G17C A41C	0.05
C3G A16U G40C A41U	0.02
C3G A6G C10G A14U G36A G44C	0.01

Variant	self-cleavage
C3G G5C G17A U28G G30A G44C	0.01
C3G A24U C31U	0.04
C3G C13A A25G	0.11
C3G C13A A25U U43A	0.06
C3G C10A A12C A16U G29A	0.01
C3G C10U U38A	0.06
C3G A14U C15A A24C C46A	0.07
C3G G19C G22U G33A A39C	0.04
C3G A14C G19C G33A C45G	0.01
C3G C8G C13U C15G U28A	0.04
C3G A12U A14G G29C	0.06
C3G C23U U32C U38A A41C	0.28
C3G C10A G19C U20A C45U	0.02
C3G C13A C18U G33C	0.09
C3G A6U A12C U32C C37A	0.02
C3G A16U G17U C37G C42A	0.06
C3G C18U C31G U32A C46A	0.03
C3G A25C A39U	0.07
C3G A6U A11G G19A G36U	0.02
C3G C10A G27C C31U	0.05
C3G A6U C31A G33U	0.05
C3G G17C A25G G33C	0.05
C3G G5U G35U	0.1
